Results taken from PubChem BioAssay AID1345082 (National Center for Advancing Translational Sciences (NCATS), 2018).
The campaign covered roughly 94,000 compounds. About 4,000 (4.3%) were called active. Inconclusive means that the source gave no clear call. Such entries were picked first, then a sample of the others. Calls follow the shape of the dose curve; as a rule, active = well fitted inhibition curve with a large enough effect; inconclusive = small, poorly fitted or top-dose-only effect; inactive = no such curve, though single readings can be large or run the other way. Potencies of inconclusive entries are doubtful fits and often do not repeat.

Test: Cytotoxic Profiling in NIH 3T3 Cell Line of Diverse Libraries Using Quantitative High-Throughput Screening; also: nearly all actives have a fitted effect of over 55% in size
Conditions: NIH 3T3 viability, CellTiter-Glo ATP luminescence, 48-72 h; series mostly up to 96.7 µM
How it was run: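 Luminescent ATP readout (CellTiter-Glo, 10 min RT) after 48 or 72 hr compound exposure of NIH 3T3 cells seeded at 400 cells/well in 1536-well format; quantitative HTS.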
Potency is read from the fitted curve at half-maximal effect; tags tell the direction and shape of the fitted curve.

Row | SMILES | Potency
1 | N#Cc1cccc(C(=O)N2CCCCCCNC(=O)[C@@H]3C[C@@H](c4nc(Cc5ccccc5)no4)C[C@@H]32)c1 | inconclusive: 44.7 µM [inhibitor, partial curve, poor fit]
2 | Cc1cc2cc(-c3c(C)noc3C)nc(N3CCN(c4ccccn4)CC3)c2o1 | active: 28.2 µM
3 | COc1cccc(N2C(=O)OCC23CCN(CCCc2ccccc2)C3)c1 (configuration not stated) | inconclusive: 79.4 µM [inhibitor, partial curve]
4 | Cc1cc(F)ccc1NC(=O)CCC1CCCN(C(=O)Cc2ccc3c(c2)OCO3)C1 (configuration not stated) | inconclusive: 35.5 µM [inhibitor, full curve]
5 | CC(C)[C@@H]1CN(C(=O)c2ncn[nH]2)C[C@H]1NS(=O)(=O)N(C)C | inactive
6 | Cn1ncc2c(C(=O)NC3CC3)cc(-c3ccccc3C(F)(F)F)nc21 | inconclusive: 39.8 µM [inhibitor, partial curve, poor fit]
7 | Cc1nn(-c2ccccc2)c2c1C(C1CC1)N(C1CCCN(C(=O)c3ccccc3F)C1)C2=O (configuration not stated) | inconclusive: 50.1 µM [inhibitor, partial curve, poor fit]
8 | C=CCNC(=O)C[C@@H]1CCN(C(=O)Nc2cccc(C(=O)OCC)c2)C[C@@H]1CC | inactive
9 | O=C(Cc1c[nH]c2ncc(-c3ccccc3)cc12)N1CCN(c2ccccn2)CC1 | inconclusive: 50.1 µM [inhibitor, partial curve, poor fit]
10 | O=C(Cn1cc(C(F)(F)F)ccc1=O)N1CCn2nc(CO)cc2C1 | inactive
11 | COc1ccccc1CN1CC[C@@H]2OCC(=O)N(C(C)C)[C@H]2CC1 | inconclusive: 50.1 µM [inhibitor, partial curve, poor fit]
12 | O=C(c1ccc(F)cc1)N1CCN(C(=O)c2nc3cccnc3n(CCc3ccccc3)c2=O)CC1 | inactive
13 | NC1CCCCN(Cc2cc(-c3ccccc3OC(F)(F)F)no2)C1 (configuration not stated) | inconclusive: 56.2 µM [inhibitor, partial curve, poor fit]
14 | O=C(c1ccc(C(F)(F)F)cc1)N1CCC(N2CCCOC2=O)CC1 | inactive
15 | O=C1COc2ccc(-c3ccsc3)nc2CN1 | inconclusive: 112 µM [inhibitor, partial curve, poor fit]
16 | COCC1CN(C)CC12CCN(Cc1cc(Br)ccc1F)CC2 (configuration not stated) | inconclusive: 50.1 µM [inhibitor, partial curve, poor fit]
17 | CN1CCN(c2cc(=O)c3ccnc(-c4cccc(F)c4)c3o2)CC1 | active: 35.5 µM
18 | CCCN1CCc2[nH]cnc2C12CCN(C(=O)c1cnn3ccccc13)CC2 | inactive
19 | Cc1noc(C)c1S(=O)(=O)NCC1(COc2ccc(S(C)(=O)=O)cc2)C[C@@H](O)[C@@H](O)C1 (some centres not stated) | inactive
20 | Cc1ccc(NC(=O)c2nc3sccn3c2-c2ccc(F)cc2)cc1 | inconclusive: 44.7 µM [inhibitor, partial curve, poor fit]
21 | COc1ccc(CN2C[C@@H](CO)[C@H](NC(=O)C3CC3)C2)cc1 | inconclusive: 79.4 µM [inhibitor, partial curve, poor fit]
22 | O=C(Nc1ccc2c(c1)OCCO2)N1CCCCCC1c1nc(-c2cccnc2)no1 (configuration not stated) | inconclusive: 70.8 µM [inhibitor, single point]
23 | CC(C)NC(=O)c1cc(-c2ccc([S+](C)(=O)[O-])cc2)c2cccn2n1 | inconclusive: 25.1 µM [inhibitor, full curve, poor fit]

Row | SMILES | Potency
24 | OC(c1ccc2c(c1)CCO2)c1nc(Nc2cccc(C(F)(F)F)c2)n[nH]1 (configuration not stated) | inconclusive: 63.1 µM [inhibitor, partial curve, poor fit]
25 | CC(C)CCN1CC(CN[S+](=O)([O-])c2ccccc2)C2(C1)CN(c1ccccc1)C2 (configuration not stated) | active: 44.7 µM
26 | COc1ccc(-c2ccnc3nc(Cc4ccc(F)cc4)nn23)cc1 | inconclusive: 7.08 µM [inhibitor, full curve, poor fit]
27 | CCOC(=O)C1(Cc2ccccc2F)CCCN(C(=O)c2cccs2)C1 (configuration not stated) | inactive
28 | CC(C)N1C(=O)C(CC(=O)NCC2CCN(Cc3cccc(F)c3)CC2)=C2CCCCC21 (configuration not stated) | inactive
29 | Cc1cccc(-n2nc(-c3c(C)nc4scc(CC(=O)N5CCCC5)n4c3=O)cc2C)c1 | inactive
30 | COc1ccc(C(=O)N2CCC(=O)N(CCC#N)C[C@H]3COc4ccc(C)cc4[C@H]32)cc1 | inactive
31 | Cc1nn(C)c(C)c1CCCN(C)C(=O)c1ccc2c(c1)C(O)CCCCCN2C (configuration not stated) | inconclusive: 50.1 µM [inhibitor, partial curve, poor fit]
32 | COc1ncc(CN2CCc3c(n(Cc4cccnc4)n(-c4ccccc4)c3=O)C2)cn1 | inconclusive: 100 µM [inhibitor, partial curve, poor fit]
33 | NC(=O)c1noc(CN2CCOc3c(O)cc(-c4csc5ccccc45)cc3C2)n1 | inconclusive: 39.8 µM [inhibitor, full curve, poor fit]
34 | Cc1nc2cccnc2n1CC1CCCN(C(=O)Nc2ccc3c(c2)OCCO3)C1 (configuration not stated) | inactive
35 | CCN1CCCCC1C(=O)N1CCC2(CC1)Nc1ccccc1NC2=O (configuration not stated) | inactive
36 | COc1cccc(-c2noc(NCc3cccc(Cl)c3)n2)c1OC | inconclusive: 56.2 µM [inhibitor, partial curve, poor fit]
37 | O=C(NCC1CN(S(=O)(=O)c2cccnc2)CC12CCOCC2)N1CCCC1 (configuration not stated) | inactive
38 | C#CCNC(=O)[C@@H]1CCCN1C(=O)c1cccc(-c2ccccc2OC)c1 | inactive
39 | COc1ccc(CC(=O)N2CC[C@@H](CC(=O)O)[C@@H](CCN(C)CCN(C)C)C2)cc1 | inactive
40 | COc1ccc(NC(=O)c2ccc3c(c2)N(C)C2CCCCN2C3=O)cc1F (configuration not stated) | inconclusive: 25.1 µM [inhibitor, full curve, poor fit]
41 | O=C(NC1CCN(c2ccnc3ccnn23)CC1)c1ccc(C(F)(F)F)cc1 | inconclusive: 50.1 µM [inhibitor, partial curve, poor fit]
42 | COc1cccc(CN2Cc3nc(-c4cc5ccccc5o4)ccc3OCC2=O)c1 | inconclusive: 50.1 µM [inhibitor, partial curve, poor fit]
43 | COCc1nc(C2CC(NC(=O)CN3C(=O)NC(=O)C3(C)C)C2)cc(=O)[nH]1 (configuration not stated) | inactive
44 | O=C(NC1CCCCCC1)C1CCN(C(=O)c2ncn3c2COC(c2ccc(Cl)cc2)C3)CC1 (configuration not stated) | inactive
45 | COCCNC(=O)C1CCCN1c1nccc(Nc2ccc(C)cc2)n1 (configuration not stated) | inactive
46 | Cc1cccc(CNC(=O)C2Cn3cccc3C(=O)N2Cc2ccccc2)c1 (configuration not stated) | inconclusive: 50.1 µM [inhibitor, partial curve, poor fit]

Row | SMILES | Potency
47 | COc1cc(-c2nc(CN3CCSCC3)c(C)o2)ccc1F | inactive
48 | COc1ccc(OCC2CN(Cc3cccc(F)c3)[S+](=O)([O-])c3cccnc3O2)cc1 (configuration not stated) | inconclusive: 28.2 µM [inhibitor, partial curve]
49 | Cc1cnc(C2CCC2)n1CC1CCN(C(=O)C2(c3ccccc3)CC2)CC1 | inactive
50 | O=C(NC1CCCN(c2cc(-c3ccc(F)cc3)[nH]n2)C1)c1ccccc1F (configuration not stated) | inconclusive: 50.1 µM [inhibitor, partial curve, poor fit]
51 | O=C(CCC1CCN(Cc2cn(-c3ccccc3)nn2)CC1)N1CCOCC1 | inactive
52 | COc1ccc(N2C(=O)[C@@H]3[C@@H](CCN3C(=O)C(C)(C)C)N(Cc3ccccc3)C2=O)cc1 | inconclusive: 100 µM [inhibitor, partial curve]
53 | COc1ccc(CN2CCC3(CC(Cc4ccccc4)=NO3)C2)cc1 (configuration not stated) | inconclusive: 44.7 µM [inhibitor, partial curve, poor fit]
54 | Cc1cccc(-c2noc([C@@H]3Cc4nc[nH]c4CN3Cc3cccc(C#N)c3)n2)c1 | inconclusive: 79.4 µM [inhibitor, partial curve, poor fit]
55 | COc1ccccc1Cn1c(=O)c(C(=O)N2CCN(C(=O)c3ccccc3)CC2)nc2cccnc21 | inactive
56 | COc1ccc(C(=O)N2CCN(c3cc(C(F)(F)F)ncn3)CC2)cc1F | inconclusive: 8.91 µM [inhibitor, full curve]
57 | CC1Oc2ccc(NC(=O)c3ccc(F)cc3F)cc2CN(C2CCCc3ccccc32)C1=O (configuration not stated) | inactive
58 | C[C@@H](c1ccccc1)N(C)C(=O)c1cn(Cc2cccc(C(F)(F)F)c2)nn1 | inconclusive: 56.2 µM [inhibitor, partial curve, poor fit]
59 | Cc1cn2nc(C(=O)Nc3cc(F)cc(F)c3)cc2c(N(C)Cc2ccccc2)n1 | inconclusive: 28.2 µM [inhibitor, partial curve, poor fit]
60 | O=C(c1ccc(Br)o1)N1CCc2nn(CC3CC3)c(=O)n2CC1 | inactive
61 | Cc1ccc(N2Cc3c(NC4CCCCC4)ncnc3N(C)CC2=O)cc1 | inconclusive: 50.1 µM [inhibitor, partial curve, poor fit]
62 | COc1ccc2cc(-c3[nH]ncc3CN3CCN(c4cccc(C)n4)CC3)ccc2c1 | active: 28.2 µM
63 | O=S(=O)(c1cccs1)N1CCC(c2nc(CCOc3ccc(F)cc3)no2)C1 (configuration not stated) | inconclusive: 50.1 µM [inhibitor, partial curve, poor fit]
64 | Cc1cnc(CN(C)Cc2cn(-c3ccccc3)nn2)[nH]1 | inactive
65 | O=C(NCCc1ccc(Cl)cc1)c1nc(-c2cccnc2)c2ccccn12 | active: 39.8 µM
66 | CC(=O)NC1(C)CCN(Cc2ccc(-c3cccc(F)c3)cc2)C1 (configuration not stated) | active: 89.1 µM
67 | COc1ccccc1-c1n[nH]c2c1CC(=O)N(Cc1ccccc1)C2 | inconclusive: 20 µM [inhibitor, full curve, poor fit]
